According to the supplement of paper PMC11417369:
± gives the standard deviation of the averaged measurements. Some of the results follow.

test system: PfAP2-I AP2 domain 3 (GST-tagged); assay: gcPBM binding intensity (ln(normalized median fluorescence intensity)); higher = stronger DNA binding
In short: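 Alexa488 anti-GST antibody, scanned at 488 nm, detected GST-tagged P. falciparum DNA-binding domains that had been expressed in E. coli and incubated for 1 h on an Agilent 4 × 180k array. The array carried primer-extended double-stranded 36-bp intergenic genomic probes and negative controls. Binding intensity is the highest Masliner-normalised natural-log median intensity across replicate spots of either orientation of each probe.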

Sequence | gcPBM binding intensity (ln)
TATATATATTTCCAGTGTACTTATTTTTTAATCAAT [XGTACX_site8220] | 8.28 ± 0.49
TCCTCAAAAAAATAAAATAATTTATACTTTTTTAAA [GTGCAC_negctrl_site724] | 7.19 ± 0.3
AACCAATTATATTTACGTACGTACGGTTTTTTATAT [XGTACX_site1291] | 7.94 ± 0.48
AATAAAAAATATAACACAAATATGTATATATATATA [TGCATGCA_negctrl_site245] | 9.01
ACATATAAAATGTATACACACAAATATTACATATAT [CACACA_site1472] | 7.9 ± 0.35
CAAAAAAAAAAAAAAAATAAATAAAGGAAATAAAAA [CACACA_negctrl_site20] | 7.41 ± 0.57
TTCTCAAAGAAGAAAAAGTTTTTTTAATTTTTCTTT [XGTACX_negctrl_site543] | 7.09 ± 0.52
AATATATTTTTTTTTTGTACATATTGTAAAATAATA [XGTACX_site6805] | 7.83 ± 0.22
ATATATTAATATACTCGTACATATTCTTATTGTGTA [XGTACX_site3728] | 7.7 ± 0.63
GTGTAGTTAAAAAAAAGTACAGATTTTTTTTTTTTT [XGTACX_site849] | 8.05 ± 0.35
ATAAGAACGTCTATGTGTACGCAGCAAAACTGAGTT [XGTACX_site6385] | 7.83 ± 0.57
AAAAAAAAAAAAACAAGTACAAAGGATAGAAAAAAA [XGTACX_site4133] | 8.02 ± 0.43
ATAGAATATTGATATTGTACGTTATCTTAAAACAAT [XGTACX_site1702] | 7.75 ± 0.71
TAATTAAAATTATCTACACACCTTTATAAATATATA [CACACA_site3928] | 7.61 ± 0.47
AAAAAAAGTTGATACTGTACTCGTGCATTATGAATA [XGTACX_site5558] | 11.3 ± 0.57
CTTATTAAAATTATTTGTACACAATATGTAAAAGTA [XGTACX_site7237] | 8 ± 0.35
AGGTATTTTCTTGTGACACACATATATATATATATT [CACACA_site2220] | 8.27 ± 0.59
TTTATATTGATATATACACACATATACATCCTATTT [CACACA_site7442] | 7.71 ± 0.48
ATTATTGTTGTTCATGTACACACTATAATAAAAGCA [CACACA_site4168] | 8 ± 0.42
TTTTGCAATAATGTTGCACACTAAATAGTCATATAT [CACACA_site7977] | 9.07 ± 0.13
ATTAATTATTTCAATGCATGTGAACACTATATATAA [TGCATGCA_site600] | 8.11 ± 0.75
TAAATATTTTTATGGGTGCGTTCTTTAGCGCAATTT | 9.69 ± 0.29
CATATAAAAAATATGGTGCAGTTTTTTTTTTTTTTT | 10.2 ± 0.23

Sequence | gcPBM binding intensity (ln)
TATATATATAATGTTTGTACATATTAAATATATATG [XGTACX_site407] | 8.65 ± 0.099
TAAATACAAAAATGTACACACATATATATATTTTTA [CACACA_site3503] | 7.78 ± 0.3
CGGCACATTATATATACACACATATAAATATATACA [CACACA_site8086] | 7.92 ± 0.26
TAAATTTTAATATGCACACAAAATGTTATATTAAAA [CACACA_site4366] | 9.13 ± 0.35
TATATAAATATATATACACACAAAAAAAAAAAAAAA [CACACA_site1406] | 8.07 ± 0.59
TATATCTTAATATACACACACACATATATATATATA [CACACA_site4968] | 9.26 ± 0.42
TAAATGAAAACCATTAGTACTTATACTGATAAATGT [XGTACX_site763] | 7.61 ± 0.59
AAAAATAAAATAATATGTACATATATAATATATATA [XGTACX_site4786] | 8.19 ± 0.37
TATTCGAAAATTATTCAAATTATCTAACATATTATT [TGCATGCA_negctrl_site70] | 7.33 ± 0.28
TAATTTTTTAGACACACACACATATAAATATAAATA [CACACA_site6195] | 7.89 ± 0.38
AATTGGAAACAACCAAAAAAATTAAAGTTGTATCCT [CACACA_negctrl_site565] | 7.22 ± 0.6
TTGTATATTATATGTACACACAATAAGTTAATATAA [CACACA_site909] | 7.85 ± 0.38
ATAATATATTTTTGAACACACAATATAGATTTATAT [CACACA_site7857] | 7.62 ± 0.61
TTCCTTTGTCCTAACTGTACTCAAATTTATTAGTGG [XGTACX_site226] | 7.93 ± 0.42
TATATATATAAGTGCACACTGAACCAAGAAAATTAT [CACACA_site3008] | 10.5 ± 0.16
CGGCACATTATATATACACACATATAAATAAATACA [CACACA_site4477] | 7.62 ± 0.49
GGATTGATAAGTGGTACACACATATAGATTATAGAT [CACACA_site7367] | 8.1 ± 0.38
ATTTATATAAAGAATGTACACACAGAAATGCACCCA [CACACA_site8715] | 11 ± 0.83
AATATTAAATGAAAAAGTACAAACAGTCCTATATTA [XGTACX_site1926] | 7.58 ± 0.49
AAAAAAAAAAAACATACACACAAATAAATACATACA [CACACA_site6073] | 7.67 ± 0.47
TAAATATATATATGTGTGCACTTCTTCATTTTAATA [GTGCAC_site9537] | 10.01 ± 0.042
CGTATGCACAAATTATGTACTTATATATATATATAT [XGTACX_site2348] | 9.27 ± 0.22
